Assay results taken from the supplement of paper PMC4604168 (melanoma cell lines).
This is one part of the list. Many values rest on one well or one pass, so single values are uncertain.

System: A375
Assay: cell count relative to DMSO control; melanoma cells; higher = more viable cells
Conditions: library dose: standard library concentration; 72 h
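Note: cells treated in 1,536-well plates, then fixed and DAPI-stained, with nuclei counted from automated high-throughput microscope images.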

| SMILES | cell count |
| --- | --- |
| OCc1c[nH]c2ccccc12 [Indole-3-carbinol] + Nc1cccc2c1CN(C1CCC(=O)NC1=O)C2=O [lenalidomide] (first compound 4 µM, partner dose 5 µM) | 90.3% |
| Cn1c(Nc2ccc(C(F)(F)F)cc2)nc2cc(Oc3ccnc(-c4ncc(C(F)(F)F)[nH]4)c3)ccc21 + NC(=O)Nc1cc(-c2cccc(F)c2)sc1C(=O)N[C@H]1CCCNC1 [AZD7762] (first compound 0.4 µM, partner dose 0.1 µM) | 52.2% |
| Clc1ccc(Nc2nnc(Cc3ccncc3)c3ccccc23)cc1 [vatalanib] + COCC[n+]1c2c(n(Cc3cnccn3)c1C)C(=O)c1ccccc1C2=O [YM155] (first compound 10 µM, partner dose 0.002 µM) | 101% |
| Nc1cccc2c1CN(C1CCC(=O)NC1=O)C2=O (stereo not given) [lenalidomide] + Cc1ccc(NC(=O)c2cccc(N(C)C)c2)cc1NC(=O)c1ccc(O)cc1 [ZM336372] (first compound 5 µM, partner dose 10 µM) | 105% |
| O=C(CCCCCCC(=O)Nc1ccccc1)NO [vorinostat] + CN(C)S(=O)(=O)c1ccc2c(c1)/C(=C/c1cc3c([nH]1)CCCC3)C(=O)N2 [SU6656] (first compound 0.4 µM, partner dose 2 µM) | 94.5% |
| OCc1c[nH]c2ccccc12 [Indole-3-carbinol] + OCCn1cc(-c2cnc3nnn(Cc4ccc5ncccc5c4)c3n2)cn1 [PF04217903] (first compound 4 µM, partner dose 5 µM) | 98.7% |
| Clc1ccc(Nc2nnc(Cc3ccncc3)c3ccccc23)cc1 [vatalanib] + Cn1cncc1[C@@](N)(c1ccc(Cl)cc1)c1ccc2c(c1)c(-c1cccc(Cl)c1)cc(=O)n2C [tipifarnib] (first compound 10 µM, partner dose 0.05 µM) | 88.4% |
| Nc1cccc2c1CN(C1CCC(=O)NC1=O)C2=O (stereo not given) [lenalidomide] + O=C(CCCCCCC(=O)Nc1ccccc1)NO [vorinostat] (first compound 5 µM, partner dose 0.4 µM) | 98.1% |
| Cn1c(Nc2ccc(C(F)(F)F)cc2)nc2cc(Oc3ccnc(-c4ncc(C(F)(F)F)[nH]4)c3)ccc21 + COCC[n+]1c2c(n(Cc3cnccn3)c1C)C(=O)c1ccccc1C2=O [YM155] (first compound 0.4 µM, partner dose 0.002 µM) | 64.3% |
| Cn1c(Nc2ccc(C(F)(F)F)cc2)nc2cc(Oc3ccnc(-c4ncc(C(F)(F)F)[nH]4)c3)ccc21 + Cc1ccc(NC(=O)c2cccc(N(C)C)c2)cc1NC(=O)c1ccc(O)cc1 [ZM336372] (first compound 0.4 µM, partner dose 10 µM) | 63.5% |
